Measurements as given in ChEMBL document CHEMBL4888484, “Replenishing the malaria drug discovery pipeline: Screening and hit evaluation of the MMV Hit Generation Library 1 (HGL1) against asexual blood stage Plasmodium falciparum ,using a nano luciferase reporter read-out” (2022).
About 540 (0.36%) of roughly 150,000 compounds showed an effect of 50% or more. This is one part of the list.

The compounds below were run on Plasmodium falciparum (assay: Primary screen in NF54 nanoGlo assay, in single point, at 2uM, 72h; a lower Z score goes with more inhibition). Settings: timepoint 72 hour.
Assay type: functional, Erythrocyte

| SMILES | % Inhibition [%] | Z score |
| --- | --- | --- |
| CCOc1ccc(C(=O)N(Cc2ccc(N(C)C)cc2)[C@H]2CCS(=O)(=O)C2)cc1 | 2 | -0.45 |
| CC(C)N1CCC(NC(=O)Nc2ccc3c(c2)OCO3)CC1 | -4 | 0.78 |
| COC(=O)NC[C@@H]1C[C@H](F)CN1C(=O)Cc1ccncc1 | -16 | 1.87 |
| O=C1NCCCCCCN(C(=O)COc2ccccc2)[C@H]2CCC[C@@H]12 | 4 | -0.55 |
| COc1cc(OC)c(NCc2csnn2)cc1Br | -7 | 0.87 |
| CC(C)OCCCNC(=O)c1cnn[nH]1 | 8 | -1.22 |
| C[C@@H]1CN(C(=O)NCCc2noc(C3CCC3)n2)C[C@H](C)O1 | -5 | 0.74 |
| CCCNC(=O)N(CCN1CCOCC1)CC(=O)N1N=C(c2ccc(C)c(C)c2)C[C@H]1c1ccc2c(c1)OCO2 | -27 | 2.64 |
| CCOc1ncccc1C(=O)N[C@@H]1[C@@H]2CCO[C@@H]2[C@H]1N(C)C | -14 | 1.31 |
| COc1cc(NC(C)=O)ccc1NC1CCC(C)C1 (stereo not given) | 7 | -0.86 |
| Cc1cc2c(cc1NC(=O)NC[C@H]1Cc3ccccc31)OCO2 | -2 | 0.26 |
| Cc1nc(CN(C)CCN(C)C2CCCC2)n(C)c1C | -5 | 0.88 |
| COc1ccc(C(=O)N2CCc3n[nH]cc3C2)cc1OC1CCN(C(C)C)CC1 | -10 | 1.26 |
| CC(C)CN1CC2(CCN(C(=O)C[C@H](C)n3ccnc3)CC2)CC1=O | -8 | 1.16 |
| Cc1c(C(=O)NC2CCCCCCC2)sc2ncnc(N(C)C3CCCCC3)c12 | -24 | 2.17 |
| Cc1cc(C(=O)N2CCc3sccc3[C@@H]2C)no1 | 3 | -0.35 |
| Cc1nnc(N2CC(c3nc(-c4ccccc4)no3)C2)nc1C | -18 | 3.4 |
| Cc1ccc(C)c(C(=O)N[C@@H]2COCC[C@@H]2OCc2ccccc2)c1 | -5 | 0.79 |
| CC(C)[C@@H]1CN(c2nnc(Cc3cn4ccccc4n3)n2C)CCO1 | -2 | 0.26 |
| CC(C)N(CC(=O)Nc1nc(-c2ccccc2)cn1-c1ccc(C(F)(F)F)cc1)C(=O)c1ccccc1F | 29 | -3.3 |
| CCn1nc(C)c(C(=O)N2CCC[C@H](c3nccn3CC3CC3)C2)c1C | -17 | 1.61 |
| Cc1nc(Cn2cccc(C(F)(F)F)c2=O)n(C)n1 | -11 | 2.05 |

| SMILES | % Inhibition [%] | Z score |
| --- | --- | --- |
| COc1ccc(NS(=O)(=O)c2cc(NCc3ccco3)cc(C(=O)NCCN(C)C)c2)cc1 | 4 | -0.48 |
| CCc1ccccc1NC(=O)CN(C)Cc1ncccc1Cl | -4 | 0.64 |
| Cc1n[nH]c(C)c1-c1cnc2c(C#N)cnn2c1 | -2 | 0.39 |
| CCN(CC)C(N)=NCC1(N2CCOCC2)CCCCC1 | 5 | -0.63 |
| COc1cc2cc(c1)C(=O)NCCCC(=O)N[C@H]1CN(C(=O)c3[nH]c4c(C)cc(C)cc4c3C)CC[C@@H]1OCc1cccc(c1)O2 | 6 | -0.86 |
| CC(C)CCc1nc(N2CCCN(C(=O)c3ccccc3Cl)CC2)c2cnn(-c3cccc(Cl)c3)c2n1 | 0 | 0.03 |
| C[C@H]1CCCCN1CC(=O)NCCc1c[nH]c2ccccc12 | -5 | 0.53 |
| O=C(c1ccc(F)cc1F)N1CCCN(C(=O)C2(O)CCC2)CC1 | -8 | 1.12 |
| O[C@H]1CCN(Cc2csc3ccccc23)C1 | -5 | 0.66 |
| CC(C)n1cnnc1C[C@H]1CCN(C(=O)Nc2ccc3c(c2)OCCO3)C1 | 0 | -0.02 |
| CC(C)NC(=O)c1cc(C(C)(C)C)n[nH]1 | -2 | 0.38 |
| Cc1nc(NC[C@H](O)CN(C)C)ccc1Cl | -2 | 0.42 |
| Cc1nc(CNC(=O)c2ccn(C(C)C)c2C)ccc1[C@H](C)O | 13 | -1.62 |
| O=C(NCC1(c2ccsc2)CCOCC1)c1ccc(Oc2ccccc2)cc1 | 11 | -1.72 |
| COc1ccccc1-c1oncc1C(=O)NCCOC[C@H]1CCOC1 | -3 | 0.73 |
| CCn1ccc(C(=O)N2CC(N(CC(C)C)C3CCN(C)CC3)C2)n1 | -13 | 1.73 |
| Cc1ccc(CN(C(=O)CCN(C)[C@H]2CCS(=O)(=O)C2)C2CCCC2)s1 | -4 | 0.64 |
| O=C(CCNS(=O)(=O)c1ccc(F)c(F)c1)NCCc1nnc2ccccn12 | -9 | 1.72 |
| Cn1c(CCc2ccccc2NS(=O)(=O)c2cccc(C(F)(F)F)c2)nc2ccccc21 | -6 | 0.76 |
| Cc1cccc(CNC(=O)Nc2ccc(N3CCOCC3)nc2)n1 | -5 | 0.89 |
| CC1(C)C(=O)N(Cc2cnn(CCF)c2)C(=O)N[C@@H]1c1ccccc1 | 0 | 0.03 |
| O=C(NCCc1ccc(F)cc1)[C@@H]1CCCN1C(=O)Nc1ccc2c(c1)OCCO2 | -12 | 1.35 |

| SMILES | % Inhibition [%] | Z score |
| --- | --- | --- |
| Cc1cc(C)c(CN2CCO[C@]3(CNCCOC3)C2)c(-n2cccn2)c1 | 3 | -0.62 |
| Cc1cc(C)n([C@@H](C)C(=O)NCCc2nc3c(F)cccc3n2C)n1 | -18 | 2.86 |
| N#Cc1ccccc1CN1CCN(C(=O)C2CCCC2)CC1 | -13 | 1.15 |
| CC(C)OCCCNc1ccccc1S(N)(=O)=O | 1 | -0.08 |
| CO[C@@H](C)c1nnc(NC(=O)c2ccncc2Cl)s1 | -2 | 0.34 |
| Cc1n[nH]c(=O)nc1NC1CCCCC1C (stereo not given) | 1 | -0.18 |
| CCOc1ccc(C(=O)N2CCN(c3cc(-n4cnc(C)c4C)ncn3)CC2)cc1 | -28 | 2.46 |
| CC(C)C(C)NC(=O)CNC(C)(CO)C1CCCCC1 (stereo not given) | 0 | 0.03 |
| CC[C@H](NC(=O)c1ccn(C(C)C)n1)c1ncnn1CC | -2 | 0.19 |
| Cc1noc(Cn2c(=O)c3ccccc3n(CC(=O)Nc3ccc(F)cc3F)c2=O)n1 | 38 | -5.48 |
| C[C@@H](C(=O)NCC(F)(F)F)N(C)CC1CCC1 | 3 | -0.37 |
| CC(=O)N[C@H]1CCO[C@@H]1c1ccnn1C(C)C | 6 | -1.12 |
| COc1ccc(C(=O)NCc2cc3cc(Cl)ccc3[nH]2)cc1COc1ccccc1Cl | -12 | 1.47 |
| CC(NC(=O)[C@@]12CCCC[C@H]1CN(C(=O)OC(C)(C)C)C2)c1ccncc1 (stereo not given in full) | 0 | -0.03 |
| c1ccc([C@H](NCc2cccnc2)c2ccc3c(c2)CCCO3)cc1 | -2 | 0.29 |
| CO[C@H]1COC[C@@H]1NC(=O)c1cnc2c(c1)CCCC2 | -4 | 0.47 |
| CCc1ccc2ncn(C[C@H]3CCN(C)C3)c(=O)c2c1 | 6 | -0.79 |
| Cc1c(Cn2ccnc2-c2ccc3c(c2)CC(C)(C)O3)cnn1C | -12 | 1.57 |
| CCOCCNC(=O)NCc1ccc(Br)cc1F | -3 | 0.43 |
| O=C(NCCNC(=O)N1CCc2c(F)cc(F)cc2C1)c1ccn[nH]1 | -19 | 2.45 |
| CN(CCc1ccccc1Cl)CC(=O)N1CCCC1 | -13 | 1.17 |
| Cn1nc(-c2ccc(F)cc2C(F)(F)F)nc1N1CCOCC1 | 0 | -0.05 |

| SMILES | % Inhibition [%] | Z score |
| --- | --- | --- |
| Cc1cccc(C)c1OCC(=O)NCCC(C)C | -27 | 3.18 |
| N#Cc1ncn(CC(=O)N2CCN(CC(=O)Nc3ccccc3C(F)(F)F)CC2)n1 | -12 | 2.21 |
| CC(C)COc1cccc(CN[C@H]2CC[C@@H](CO)C2)c1 | 3 | -0.62 |
| O=C(Nc1ccc2c(c1)OCO2)c1nn2c(C(F)(F)F)cc(-c3ccccc3)nc2c1Br | -4 | 0.67 |
| CCc1ccc(S(=O)(=O)Nc2ncn(Cc3ccncc3)n2)s1 | 6 | -0.91 |
| CCc1nc2c(s1)[C@@H](N(C)Cc1noc(C(C)C)n1)CCC2 | -8 | 1.23 |
| O=C1CC[C@](C(=O)N2Cc3cccc(F)c3C2)(c2ccccc2)CN1 | 30 | -3.4 |
| CN(CCN)c1ccc(Br)cc1C#N | 36 | -0.87 |
| C[C@@H](C1CC1)n1cc(NC(=O)N2CCN(c3cccs3)CC2)cn1 | 0 | 0.04 |
| Cc1ccc(NC(=O)NC(C)(C)C)cc1C | -4 | 0.59 |
| O=C([C@@H](O)c1ccccc1)N1CCC(c2nccn2Cc2ccccc2)CC1 | -14 | 1.55 |
| COCC(C)NC(C(N)=O)c1ccc(Br)cc1F (stereo not given) | -12 | 1.24 |
| CC(=O)N1CC[C@@]2(O)CCN(CC(c3ccccc3)c3ccccc3)C[C@H]2C1 | -6 | 1.06 |
| O=C(CCc1conc1-c1ccccc1F)NCC1CCCCC1 | -10 | 1.31 |
| CCC[C@H]1CN(C(=O)c2scc3c2OCCO3)C[C@@H]1NS(C)(=O)=O | 13 | -1.78 |
| Cc1cc(C(=O)N2CCNC(=O)c3c(C)cccc32)c2ccccc2n1 | 0 | 0.06 |
| O=C(CCC(=O)NCc1ccccc1)NCCCN1CCOCC1 | 34 | -0.55 |
| Cc1ccc(/N=C(\NCCN2CCOCC2)NC(=O)c2ccc3c(c2)OCO3)cc1 | -29 | 2.62 |
| COc1ncccc1NC(=O)N1CCC[C@H]1c1ccncc1 | -5 | 0.77 |
